The full ranking holds about 110,000 compounds; the median of “z-score” is about -0.1, and the highest 2% start at about 2. The list shows a part of the results. The source made the active and inactive calls.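 Rule for the calls: active = z-score in the third read window above 3 or below -3; inactive = the rest.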
target: Metabotropic glutamate receptor 8 (Rattus norvegicus) (UniProt P70579); assay: rat mGluR8 modulators via GIRK flux, primary screen, cell-based, thallium flux, HTS (AID 488969); conditions: HEK293 rat mGluR8, GIRK (G protein-gated inwardly rectifying potassium channel) thallium flux, FluoZin2; at 10 µM; stronger effect = higher value; submaximal glutamate (EC20) added with thallium
Chain of UniProt P70579 (P70579 whole entry, looked up): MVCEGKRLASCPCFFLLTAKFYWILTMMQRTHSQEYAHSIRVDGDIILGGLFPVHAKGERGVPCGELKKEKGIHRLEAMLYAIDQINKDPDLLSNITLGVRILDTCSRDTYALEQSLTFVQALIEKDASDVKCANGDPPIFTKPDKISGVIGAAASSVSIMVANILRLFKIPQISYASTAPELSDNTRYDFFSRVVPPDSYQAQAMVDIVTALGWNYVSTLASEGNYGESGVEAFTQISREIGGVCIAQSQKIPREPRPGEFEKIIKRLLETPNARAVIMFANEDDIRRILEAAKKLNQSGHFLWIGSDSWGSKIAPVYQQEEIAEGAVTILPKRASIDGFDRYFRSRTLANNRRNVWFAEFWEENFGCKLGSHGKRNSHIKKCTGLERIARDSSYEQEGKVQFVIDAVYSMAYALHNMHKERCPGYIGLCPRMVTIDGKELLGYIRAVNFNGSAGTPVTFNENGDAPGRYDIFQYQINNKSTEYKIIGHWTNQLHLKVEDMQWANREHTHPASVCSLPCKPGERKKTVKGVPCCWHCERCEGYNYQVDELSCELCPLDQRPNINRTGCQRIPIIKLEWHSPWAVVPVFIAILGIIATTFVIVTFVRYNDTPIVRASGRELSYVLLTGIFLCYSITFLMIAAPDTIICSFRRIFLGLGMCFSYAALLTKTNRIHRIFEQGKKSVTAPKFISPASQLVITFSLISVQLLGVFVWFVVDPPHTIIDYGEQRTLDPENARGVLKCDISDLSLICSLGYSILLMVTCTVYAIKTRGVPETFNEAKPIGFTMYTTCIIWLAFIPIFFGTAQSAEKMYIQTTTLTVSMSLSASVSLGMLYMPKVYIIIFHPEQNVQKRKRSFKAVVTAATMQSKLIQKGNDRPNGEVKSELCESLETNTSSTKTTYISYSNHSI

Row | Structure (SMILES) | z-score
1 | Cc1cc(C(=O)N2CCc3ccccc32)c2ccccc2n1 | 0.252
2 | COc1ccc(OCCn2cc(/C(N)=N/O)c3ccccc32)cc1 | -0.174
3 | C/C(=N\NC(=O)c1ccc(CN2CCOCC2)cc1)c1cccc([N+](=O)[O-])c1 | -0.388
4 | CC(C)(C)C(=O)Oc1cc(N)n(S(=O)(=O)c2ccc(F)cc2)n1 | -1.6
5 | CCOC(=O)C1=C(C)NC(=O)NC1c1ccccc1OCc1c(F)cccc1Cl (centres undefined) | -0.701
6 | Oc1ccc(NC(=S)Nc2ccccc2)cc1 | -0.14
7 | CC(=O)c1cc(NC(=O)c2ccc(Cl)cc2)c(=O)oc1/C=C/N(C)C | -0.164
8 | c1ccc(CNc2ncnc3c2oc2ccccc23)nc1 | 0.503
9 | CCc1nc(SCc2cc(Cl)ccc2OC)n[nH]1 | 0.561
10 | CCOCCSc1nc2c(c(-c3cccs3)c1C#N)CC/C2=C/c1cccs1 | -0.182
11 | COc1ccc(C(=O)C/C(=C\C(=O)c2ccc(C)cc2)c2ccccc2)cc1 | -0.243
12 | COc1ccc(NC(=O)c2ccc(CNc3c(NC4CCCCC4)c(=O)c3=O)cc2)c(OC)c1 | 1.05
13 | Cc1ccc(N2CC(C(=O)NCCCn3ccnc3)CC2=O)cc1 (centres undefined) | -0.228
14 | CCOC(=O)C1CSC(CC(=O)Nc2ccc(Cl)cc2)C(=O)N1 (centres undefined) | -0.195
15 | COc1ccc(N(CC(=O)NN=C2CCCC2)S(=O)(=O)c2ccccc2)cc1Cl | -0.806
16 | CCOC(=O)c1ccc(NC(=O)CN2C(=O)CSCC2=O)cc1 | -0.0441
17 | O=C1CC(c2cc(Br)ccc2F)c2cc3c(cc2N1)CCC3 (centres undefined) | -0.108
18 | Cn1c2c(c(=O)n(C)c1=O)C(NS(=O)(=O)c1ccc(Cl)cc1)(C(F)(F)F)C(=O)N2 (centres undefined) | -0.23
19 | O=C(Nc1cccc(F)c1)NC1(C(=O)N2CCN3CCCC3C2)CCCCC1 (centres undefined) | 0.517
20 | COc1ccccc1OCCSc1nc(N)cc(N)n1 | 0.247
21 | Cc1cccc(C(=O)N[C@H](C(=O)Nc2nc(C)cs2)C(C)C)c1 | -0.204
22 | CCOC(=O)CNC(=O)C1c2ccccc2C(=O)N(c2ccc(OC)cc2)C1c1ccc(OC)cc1 (centres undefined) | 0.203

Row | Structure (SMILES) | z-score
23 | COc1ccc(Nc2nc(N)nc(CSc3nncn3C)n2)cc1 | 0.0648
24 | Cc1ccc(-n2c(C)cc3c2CC(C)(C)CC3=O)cc1C | 0.768
25 | COCCCNCCOc1cc(C(C)C)ccc1C | 1.96
26 | COC(=O)CCn1nnc(-c2ccc(C)cc2)n1 | -0.429
27 | COC(=O)CNc1nc(C2CC2)nc2c1nnn2Cc1ccccc1Cl | -0.233
28 | COc1ccc2c(c1)Cc1sc(NC(=O)c3cccs3)nc1-2 | 0.245
29 | Cc1cccc(-n2c(-c3ccncc3)n[nH]c2=S)c1 | -0.125
30 | Clc1ccc(Sc2cc(Cl)c(-c3ccccc3)nn2)cc1 | -1.2
31 | CCCC(=O)C1C(=O)CC(CC(C)SCC)CC1=O (centres undefined) | 0.82
32 | Cc1cc(Br)cc(C)c1NC(=S)NC(=O)CC(C)C | -0.0455
33 | Cn1nnnc1SCC(=O)NCCCc1ccccc1 | 0.96
34 | CCCCOC(=O)n1c(SCC(=O)N(CC)CC)nc2ccccc21 | -0.33
35 | CC(=O)c1ccc(Oc2ccc(C(C)=O)cc2)cc1 | -0.0838
36 | COc1ccc(NS(=O)(=O)c2cc(NC(=O)CCSc3ccccc3)ccc2OC)cc1 | -0.303
37 | Cc1ccc(S(=O)(=O)Nc2ccccc2-c2ccccc2NS(=O)(=O)c2ccc(C)cc2)cc1 | -0.159
38 | CCOC(=O)NC1(Nc2ccc(C)cc2)Oc2ccccc2O1 | -0.0164
39 | Cc1nc2c(Cl)cc(Cl)cc2[nH]1 | -0.18
40 | COc1ccc(Cn2c(=O)[nH]c3cc(C(=O)NCc4ccc5c(c4)OCO5)ccc3c2=O)cc1 | 0.0407
41 | CCn1c(SC(C)C(=O)OC)nnc1-c1c[nH]c2ccccc12 (centres undefined) | -0.657
42 | c1ccc2c(c1)OCC(c1csc3ncnc(N4CCCC4)c13)O2 (centres undefined) | 1.23
43 | Cc1c(Br)c([N+](=O)[O-])nn1CC(=O)NCc1cccs1 | -0.389
44 | O=C(CNCC1CCCO1)N1CCN(S(=O)(=O)c2ccc3ccccc3c2)CC1 (centres undefined) | -0.307

Row | Structure (SMILES) | z-score
45 | COc1ccc(-n2c(C)cc(=O)c3c2CC(C)(C)CC3=O)cc1 | -0.746
46 | CN1OC2C(=O)N(c3ccccc3)C(=O)C2C1c1ccc(F)cc1 (centres undefined) | -0.0795
47 | CCCC(=O)N1c2ccc(-c3csc(N)n3)cc2CC1C (centres undefined) | 0.0581
48 | Cn1c(=O)nc2n(Cc3ccccc3)c3cccc(Cl)c3cc-2c1=O | -0.689
49 | Nc1cccnc1Sc1ccc(Cl)cc1 | -0.0974
50 | NC(=O)c1c(NC(=O)C2CCCO2)sc2c1CCCC2 (centres undefined) | -0.0325
51 | O=C(CNC(=O)c1cccc(F)c1)N/N=C/c1cc(Br)ccc1OC(=O)/C=C/c1ccco1 | 2.46
52 | CC(=O)N1Cc2ccccc2C(C)CC12CCCC2 (centres undefined) | -0.432
53 | CCOC(=O)C1=CN(c2cccc(F)c2)C=C(C(=O)OCC)C1c1cc(OC)c(O)c([N+](=O)[O-])c1 | -0.207
54 | Cc1ccc(S(=O)(=O)c2c(COC(=O)c3ccc(Cl)cc3)c(-c3ccccc3)nn2C)cc1 | -0.106
55 | O=C1CCCc2c1nc(-c1ccccc1)n2O | 0.581
56 | O=C(OCCN=C1NS(=O)(=O)c2ccccc21)C1CC(=O)N(c2ccc3ccccc3c2)C1 (centres undefined) | -0.0146
57 | Cc1ccc(/C=C2/NC(=O)N(Cc3ccc(Br)cc3)C2=O)o1 | -0.0548
58 | O=S1(=O)C=C(Oc2ccc(F)cc2)c2ccccc21 | 0.0133
59 | CCCCn1c2ccccc2c2nnc(SCC(=O)NC3=NN=C(c4ccccc4)CS3)nc21 | 0.151
60 | C=CCn1c(SCC(=O)N(C)C2CCS(=O)(=O)C2)nnc1-c1ccncc1 (centres undefined) | 0.693
61 | CCCCP(=O)(CCCC)Cc1ccccc1O | 0.0618
62 | COc1ccc(CCNC(=O)CN(c2ccccc2OC)S(C)(=O)=O)cc1 | 0.153
63 | O=S(=O)(NCCN1CCCC1)c1cccc2cccnc12 | 0.374
64 | COc1ccc(CCn2nnnc2C(CC(C)C)N2CCN(c3ncccn3)CC2)cc1OC (centres undefined) | -0.106
65 | COc1ccc(S(=O)(=O)NCc2ccccc2Cl)cc1OC | -0.612
66 | O=C(Oc1cccc(N2C(=O)C3C4c5ccccc5C(c5ccccc54)C3C2=O)c1)c1ccco1 (centres undefined) | 0.0948

Row | Structure (SMILES) | z-score
67 | COC(=O)c1c(NC(=O)c2cccnc2)sc(C(=O)N(C)C)c1C | -0.154
68 | Cc1ccc2c(c1)-c1cc(C)nn1C(c1sccc1C)N2 (centres undefined) | -0.539
69 | CSCCC(NC(=O)c1cc([N+](=O)[O-])ccc1Cl)C(=O)O (centres undefined) | 0.0813
70 | O=C(CCCCCn1c(=O)[nH]c2ccsc2c1=O)NCc1ccc2c(c1)OCO2 | -0.285
71 | COc1cccc(NC(=O)c2ccccc2-c2nc(-c3cccc(C)c3)no2)c1 | -0.399
72 | N#CCSc1nnc(COc2ccccc2)n1-c1ccccc1 | 0.0947
73 | CCOC(=O)N1CCN(C(=S)NC(C)(C)C)CC1 | 0.0874
74 | Oc1c(C=Nc2cccc3cccnc23)sc2ccccc12 | 0.127
75 | CCOC(=O)CSc1ncnc2c1nnn2-c1ccc(F)cc1 | -0.336
76 | Cc1ccc(NC(=O)Cn2nnc(C(=O)NCc3ccccc3)c2N)cc1C | 1.36
77 | COc1ccc(S(=O)(=O)Nc2c(C)n(C)n(-c3ccccc3)c2=O)cc1 | -0.144
78 | CN1C(=O)/C(=C/c2cn(CC(=O)N3CCCCC3)c3ccccc23)c2ccccc21 | 1.32
79 | CN(C)c1ccc(C(CNS(=O)(=O)c2ccc(F)cc2)c2c[nH]c3ccccc23)cc1 (centres undefined) | 0.239
80 | Cc1nc2ccc(S(=O)(=O)NCC(=O)NCCN3CCCCC3C)cc2s1 (centres undefined) | -0.323
81 | Clc1cccc(-c2ccc(/C=N/n3cnnc3)o2)c1Cl | active: 8.91
82 | COC(=O)c1nn(Cc2ccccc2)c(=O)c2ccccc12 | 0.721
83 | Cc1nnc(NC(=O)c2cccc(S(=O)(=O)N3CCc4ccccc43)c2)s1 | 0.437
84 | O=C(O)CCc1ccc(-c2cccs2)n1NC(=O)c1ccc(Cl)cc1 | 0.532
85 | CCCc1nc(SCC(=O)NCc2ccco2)c2c(=O)n(C)c(=O)n(C)c2n1 | 1.95
86 | CC(C)(C)c1ccc(C(=O)NNC(=S)NCC2CCCO2)cc1 (centres undefined) | -0.186
87 | CNc1oc(-c2ccccc2Cl)nc1P(=O)(c1ccccc1)c1ccccc1 | -0.354
88 | O=C(CO/N=C/c1ccc2c(c1)OCO2)Nc1cccc(Br)c1 | -0.0351

Row | Structure (SMILES) | z-score
89 | CN(C)c1ccc(NC(=O)CSc2nc(N)c(C(=O)Nc3ccc(N(C)C)cc3)s2)cc1 | -0.193
90 | O=C(Nc1ccc(S(=O)(=O)Nc2ncccn2)cc1)c1cncc(Br)c1 | -0.359
91 | Cc1ccc(S(=O)(=O)c2nnn3c2nc(Nc2cccc(C)c2)c2ccccc23)cc1 | 0.199
92 | CC1Cc2ccccc2N1S(=O)(=O)c1cccc(C(=O)c2nccn2C)c1 (centres undefined) | -0.449
93 | CCN(CCO)Cc1csc2ccccc12 | -0.304
94 | CCOC(=O)C1=C(C)NC(=O)NC1c1ccc(OCC(=O)Nc2ccccc2)c(OC)c1 (centres undefined) | -2.01
95 | CC(C)(C)C(=O)/C(=C\c1ccc([N+](=O)[O-])cc1)n1cncn1 | 0.114
96 | O=C(NNS(=O)(=O)c1ccccc1)C1CCN(S(=O)(=O)c2ccccc2)CC1 | 0.653
97 | O=C(CSc1n[nH]c(-c2cccs2)n1)N1CCN(S(=O)(=O)c2ccccc2)CC1 | 0.302
98 | COc1ccc(C)cc1NC(=O)C(OC(=O)CNC(=O)c1ccc(Br)cc1)c1ccccc1 (centres undefined) | -0.0808
99 | CC1=NN(/C(=N\c2nnc(C)s2)Nc2ccc(C(C)(C)C)cc2)[C@H](c2ccc(C)cc2)S1 | 0.00752
100 | CCCCN(C)C(=O)c1ccc(S(=O)(=O)N2CCOCC2)cc1 | -0.13
101 | COc1ccc(N(CCN2C(=O)c3ccccc3C2=O)C(=O)c2cccc([N+](=O)[O-])c2)cc1 | -0.244
102 | N#Cc1ccc(OCC(=O)N/N=C2/CC(c3ccccc3)Oc3ccccc32)cc1 (centres undefined) | 0.107
103 | Cc1cc(/C(=N/O)C(C)(C)NO)ccc1Cl | -0.287
104 | O=C(COC(=O)/C=C/c1ccc(OC(F)F)cc1)NCc1cccs1 | -0.235
105 | O=C(CN1C(=O)c2ccccc2S1(=O)=O)NCc1cccnc1 | -1.17
106 | c1cncc(-c2nc(-c3ccc4c(c3)OCO4)cs2)c1 | -0.165
107 | CN1CCN(CC(=O)n2c3c(c4ccccc42)CCCC3)CC1 | 1.15
108 | CCCOc1ccc(C(O)(CCC)CCN2CCCCC2)cc1 (centres undefined) | 0.623
109 | CC(C)(C)OC(=O)CN1C(=O)C(Sc2n[nH]c(-c3ccccc3)n2)CCc2ccccc21 (centres undefined) | -0.388

Reference: PubChem BioAssay AID488969 (Vanderbilt High Throughput Screening Facility, 2010)
